{
  "source": "paper PMC12136788",
  "binders": {"B1": {"name": "chr16:36052476:36052477:-_ENSMUSG00000003955_ENSMUST00000004057|mus_hu|motif|central (ssRNA)", "RNA": "GGGAGUUCUACAGUCCGACGAUCUUCAAAUCAGAGCUUCUGGUAAGCCUUAGAGAUGAGGAAACAUCUCUUUCACAUAACCGGAAACAGCUUCUCAUAAUUGCACUGGCAAACAGUUCUUAUAAGAUACUUAAAUCUUUGCGACAACAGAGGAUUGAGCAUCA"}, "B2": {"name": "chr2:202488911:202488912:-_ENSG00000155755_ENST00000286196|hu_mus|hu_hu_hu_mus_False|78_98 (ssRNA)", "RNA": "GGGAGUUCUACAGUCCGACGAUCAUUGAAACAUUUUCAUAAUAUUGCAGUAGCAUUCAGUAUUAUAGUAACAAAAGCUCAAUUGUAAAUACAUGUAUCUUAUAAAAAUACACUUAAAAACACGAGUGGGGAGCGCAGGCGCCACAACAGAGGAUUGAGCAUCA"}, "B3": {"name": "chr7:75932113:75932114:+_ENSG00000106211_ENST00000248553|hu_hu|hu_hu_hu_mus_False|28_28 (ssRNA)", "RNA": "GGGAGUUCUACAGUCCGACGAUCCUGCGACCACUCAUCGGGCAACCGGGGCACCCCGAAAGCUUGAUCGAAGAGGCGGCUGUGUGCAGGGUACCAGUCCCGGAAUGCCCAGCUGGGCGGGCUCCGCAGCAGCGAGAAGGGCACCAACAGAGGAUUGAGCAUCA"}, "B4": {"name": "23376950_23377070_1096_CDS_ENSMUSG00000026158_ENSMUST00000027343|mouse|control|control (ssRNA)", "RNA": "GGGAGUUCUACAGUCCGACGAUCGUGUGUAGAAGUUUGACCAUUGGAGCCCGACGCGGGCAGAGUCGGGGUUUUCUGGGCUUUGCUUCGCUCUGGCAGUUCUUUCUUAGGUGGCCCCCAGAUGAAAUUCUCUGAUGGUGUGUACAACAGAGGAUUGAGCAUCA"}, "B5": {"name": "62406522_62406890_269_CDS_ENSG00000089597_ENST00000356638|human|control|control (ssRNA)", "RNA": "GGGAGUUCUACAGUCCGACGAUCAUCAAUCCUGAACCGAGUCAUGUUCUUUUGAAGCCCCUGAAGCUCUAGCACCAGCAACACCUUGGUGACCUCAUGGAUCAGAUGGACCGUGAGGGAAUCAGGACCAAGCUGUAGAGAGUCCAACAGAGGAUUGAGCAUCA"}, "B6": {"name": "chr16:94690093:94690094:+_ENSMUSG00000040785_ENSMUST00000117648|mus_hu|mus_mus_mus_hu_True|8_48 (ssRNA)", "RNA": "GGGAGUUCUACAGUCCGACGAUCGGGCUGGGAUGACGGACACACAGCCUCGAUUCCAGGGGGAAAAAGUCUUAGUCGAUACUAAUUUAAAAAGUAUAAUGAUUUUUGAAAAUCAGAUUACAUCUAUUUGAAUCAUAAAGCAAACAACAGAGGAUUGAGCAUCA"}, "B7": {"name": "chr4:114257803:114257804:+_ENSG00000145362_ENST00000514960|hu_hu|motif|central (ssRNA)", "RNA": "GGGAGUUCUACAGUCCGACGAUCGGAAUGGUCAUGGUAAUUGGUUUGUGGAAUUUUCUUCUUCUAGGUUCCAAAGUGACGGUAGGGCUGAAGGUAGCUUUGUUGCCUAGGAUCUUCUUAACCAGCUCACUGUGCAUAGGUUGACAACAGAGGAUUGAGCAUCA"}, "B8": {"name": "chr1:45868982:45868983:+_ENSMUSG00000025995_ENSMUST00000027139|mus_hu|motif|central (ssRNA)", "RNA": "GGGAGUUCUACAGUCCGACGAUCAGAAGUGCAGAAUAAAUCUCCUGCAGGCGAGACUGAGAUAUGUUCAAUAGUAGCUCCGGAACGCGGGAGAAACUCCUUAUUCUUCUCUGUUGCAUCGCGCCACUCUACAAGUACAGAUUCCAACAGAGGAUUGAGCAUCA"}, "B9": {"name": "chr10:126975481:126975482:-_ENSMUSG00000040249_ENSMUST00000049149|mus_hu|FALSE|FALSE (ssRNA)", "RNA": "GGGAGUUCUACAGUCCGACGAUCCCAGCCCUGGGAACCUCGGUGGGGGCCCUGGAGACAGGGAGGGCCUGUCUGGGAGGGGGGUUGAGCAUGGCCAUCUCAUAGGUGCCCCUGGAGUUGGGGCUGGGGUUUGGGGUGGCCUCCCAACAGAGGAUUGAGCAUCA"}, "B10": {"name": "chr9:113799110:113799111:+_ENSMUSG00000033392_ENSMUST00000111838|mus_hu|motif|central (ssRNA)", "RNA": "GGGAGUUCUACAGUCCGACGAUCCAGCAGUACAAACAACCAAUCUUGAAGAUCAUCUUUGUGGACUUGUAUGAAAUCCACGGGAGUCUCCAAAAACAUGCUGAAUACUCUCUUGCCAUGAGGGUCAGCAAACAUUCUUGUGAACAACAGAGGAUUGAGCAUCA"}, "B11": {"name": "chr2:202488911:202488912:-_ENSG00000155755_ENST00000286196|hu_mus|hu_hu_hu_mus_False|28_98 (ssRNA)", "RNA": "GGGAGUUCUACAGUCCGACGAUCAUUGAAACAUUUUCAUAAUAUUGCAGUAGCAUUUCAGCAUUAUGUAACAAAAGCUCAAUUGUAAAUACAUGUAUCUUAUAAAAAUAAAAAUACAAACACGAGUGGGGAGCGCAGGCGCCACAACAGAGGAUUGAGCAUCA"}, "B12": {"name": "chr1:178670160:178670161:-_ENSMUSG00000057335_ENSMUST00000057037|mus_mus|motif|central (ssRNA)", "RNA": "GGGAGUUCUACAGUCCGACGAUCCUGAGGCCUCGAGUCAACAGACCGACCGUUGUUUCCUUCUGGUGUUUUAGAAUGAACGGAUGGAGGUAUCUUUCGGAAGUUGAGACUUUCAUCAAAAACACGAUCAACCAACUCUUCUCUCAACAGAGGAUUGAGCAUCA"}, "B13": {"name": "chr4:76721835:76721836:+_ENSG00000138768_ENST00000264904|hu_hu|motif|central (ssRNA)", "RNA": "GGGAGUUCUACAGUCCGACGAUCUUUGGCUGGGGUUUCUGAGAUGCUCUGGAAUACAACUCAUGUUUGCUAAUAAAUCCGGGUUUCUCUAUGAAAUUCUCUUUGCCAAUCCUCUUCUCAAUCAGUUGUUUUAGCUUCUCUUUCCAACAGAGGAUUGAGCAUCA"}, "B14": {"name": "chr9:122046571:122046572:+_ENSMUSG00000038145_ENSMUST00000120173|mus_hu|FALSE|FALSE (ssRNA)", "RNA": "GGGAGUUCUACAGUCCGACGAUCUUGAAAUUUGUUGCUGAACCCAAAGUCUGUCAACUUUACAAGACCUUGUUUUUCAAAGAAGACUACAUUCUCUGGUUUUAAGUCUCUGUGAACCACAUGGAGUUUAUGGCAAUAAGAUAUCAACAGAGGAUUGAGCAUCA"}},
  "note": "The list shows a part of the results.",
  "data": [
    {"target": "T1, UNK ZnF1-3 (human, UniProt Q9C0B0 31-174)", "T1 sequence": "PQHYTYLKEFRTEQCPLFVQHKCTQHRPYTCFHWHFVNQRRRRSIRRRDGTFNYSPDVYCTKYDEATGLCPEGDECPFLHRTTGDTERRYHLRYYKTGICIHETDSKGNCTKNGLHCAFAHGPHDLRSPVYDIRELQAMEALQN", "assay": "nsRBNS (natural sequence RNA bind-n-seq); RBNS binding buffer (assumed for nsRBNS): 25 mM Tris pH 7.5, 150 mM KCl, 3 mM MgCl2, 0.01% Triton X-100, 500 ug/ml BSA, 20 U/ml SUPERase-In, 4 C; UNK is unkempt and MSI1 is Musashi-1; names of the RNAs are library labels; protein concentration not given here; high values mean tight binding", "units": {"binding signal": "enrichment R"}, "values": [
      {"binder": "B1", "binding signal": 0.608},
      {"binder": "B2", "binding signal": 0.72},
      {"binder": "B3", "binding signal": 0.498},
      {"binder": "B4", "binding signal": 0.883},
      {"binder": "B5", "binding signal": 1.07},
      {"binder": "B6", "binding signal": 0.599},
      {"binder": "B7", "binding signal": 0.709},
      {"binder": "B8", "binding signal": 0.787},
      {"binder": "B9", "binding signal": 1.15},
      {"binder": "B10", "binding signal": 0.87},
      {"binder": "B11", "binding signal": 1.04},
      {"binder": "B12", "binding signal": 1.04},
      {"binder": "B13", "binding signal": 0.541},
      {"binder": "B14", "binding signal": 0.569}
    ]}
  ]
}
